In all, about 220,000 compounds went through this assay and about 16,000 (7.3%) were called active. The shares of active, inactive and inconclusive entries below differ from those in the screen. Calls follow the shape of the dose curve; as a rule, active = well fitted inhibition curve with a large enough effect (not every such curve was filed as active); inconclusive = small, poorly fitted or top-dose-only effect, or another doubt; inactive = no such curve, though single readings can be large or run the other way. No potency is given beside an inconclusive call; the fits are too rough.
These compounds were tested against Aldehyde dehydrogenase 1A1 (Homo sapiens) (UniProt P00352) (assay: qHTS Assay for Inhibitors of Aldehyde Dehydrogenase 1 (ALDH1A1)). Conditions: Purified ALDH1A1, NADH fluorescence, propionaldehyde substrate; series mostly up to 75.3 µM.
UniProt P00352, sequence (P00352 whole entry, looked up): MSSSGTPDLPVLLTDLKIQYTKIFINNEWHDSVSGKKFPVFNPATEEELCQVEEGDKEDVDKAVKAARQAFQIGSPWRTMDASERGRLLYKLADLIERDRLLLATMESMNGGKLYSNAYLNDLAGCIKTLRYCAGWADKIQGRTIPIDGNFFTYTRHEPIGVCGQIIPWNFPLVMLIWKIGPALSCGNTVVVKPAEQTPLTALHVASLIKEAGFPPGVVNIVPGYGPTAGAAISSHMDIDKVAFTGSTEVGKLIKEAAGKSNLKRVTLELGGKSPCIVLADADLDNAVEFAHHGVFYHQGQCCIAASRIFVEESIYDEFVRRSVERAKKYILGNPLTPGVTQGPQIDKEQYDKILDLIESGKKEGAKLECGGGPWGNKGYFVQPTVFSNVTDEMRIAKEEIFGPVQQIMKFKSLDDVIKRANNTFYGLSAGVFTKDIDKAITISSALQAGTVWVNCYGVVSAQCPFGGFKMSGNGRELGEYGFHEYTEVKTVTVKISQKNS
With `O=C(N=Nc1c(O)[nH]c2ccc(Br)cc12)c1ccccc1-n1cccc1` the Potency was inconclusive [inhibitor, single point]. In the case of `CCn1c(SCC(=O)N/N=C/c2c[nH]c3ccccc23)nnc1-c1ccc(C)cc1`, the Potency is reported as inconclusive [inhibitor, single point]. With `CCc1cc2ccc(C)cc2nc1SCC(=O)NNC(=O)c1ccco1` the Potency was active: 3.98 µM. In the case of `COC(=O)c1cc(COc2ccc3c(c2)oc(=O)c2ccccc23)c(C)o1`, the Potency is reported as inconclusive [inhibitor, single point]. In the case of `c1ccc(Cn2c(NCc3ccccn3)nc3ccccc32)cc1`, the Potency is reported as “inactive”. In the case of `CCC(=O)Nc1ccc(C(=O)Cn2ncc(Cl)c(Cl)c2=O)cc1`, the Potency is reported as active: 2.24 µM. For `O=C(Nc1ccc([N+](=O)[O-])cn1)c1ccc2c(c1)OCO2`, the Potency was “inactive”. With `CN1CCN(c2ncc3nc(-c4ccccc4)c(=O)n(CCc4ccccc4)c3n2)CC1` the Potency was inconclusive [inhibitor, partial curve]. In the case of `CN(CCNC(=O)c1cc2c(=O)n(C)c3ccccc3c2n1C)Cc1ccccc1`, the Potency is reported as inconclusive [inhibitor, partial curve]. With `Cc1ccc(C(=O)Nc2ccccc2-c2ccccc2)o1` the Potency was inconclusive [inhibitor, single point]. With `CS(=O)(=O)c1cccc(C(=O)NCc2ccccc2)c1` the Potency was inconclusive [inhibitor, single point]. For `O=S(=O)(Nc1cccc(-c2cn3cccnc3n2)c1)c1ccc(Cl)cc1`, the Potency was inconclusive [inhibitor, partial curve]. For `Nc1nc2c(C(=O)N3CCOCC3)nnn2c2ccccc12`, the Potency was inconclusive [inhibitor, partial curve]. In the case of `O=C(COC(=O)C1CC2C=CC1C2)NCCc1ccccc1` (stereo unspecified), the Potency is reported as inconclusive [inhibitor, single point]. In the case of `CO[C@@H]1COC(=O)[C@H](C)NC(=O)[C@@H](C)COC(=O)CCC[C@H]1C`, the activity, negative = inhibition is reported as inactive: -1.24% [at 13.5 µM]. `CCOc1ccc(-c2ccc(/C=C3/C(=N)N4C(C)=CSC4=NC3=O)o2)c([N+](=O)[O-])c1` was tested, and the Potency was inconclusive [inhibitor, single point]. In the case of `COc1c(S(=O)(=O)Nc2cccnc2)ccc(Cl)c1Cl`, the Potency is reported as inconclusive [inhibitor, partial curve]. `O=C(N1CCN(c2ccc(F)cc2)CC1)C12CC3CC(CC(C3)C1)C2` was tested, and the Potency was inconclusive [inhibitor, single point]. For `Cc1ccccc1-n1c(=O)cc(NCC2CCCO2)[nH]c1=O` (stereo unspecified), the Potency was inconclusive [inhibitor, single point]. With `CCc1ccccc1NC1=NCC(=O)N1Cc1ccccc1` the Potency was “inactive”. With `COCc1cc(=O)[nH]c(-c2ccccc2)n1` the Potency was “inactive”. With `O=C(O)C1C2C=CC(O2)C1C(=O)NCCCn1ccnc1` (stereo unspecified) the Potency was inconclusive [inhibitor, partial curve]. `CC(c1ccco1)N(C(=O)c1ccccc1NS(=O)(=O)c1ccc(Cl)c([N+](=O)[O-])c1)c1ccccn1` (stereo unspecified) was tested, and the Potency was “inactive”. `Cc1ccccc1Nc1nnc(SCC(=O)NC(=O)NCc2ccco2)s1` was tested, and the Potency was inconclusive [inhibitor, single point]. For `Cc1ccc(C(c2nnnn2CC2CCCO2)N2CCN(Cc3ccccc3)CC2)cc1` (stereo unspecified), the Potency was inconclusive [inhibitor, single point]. `CC1=C(C(=O)OC2CCCCCCC2)C(c2cccc(O)c2)NC(=O)N1` (stereo unspecified) was tested, and the Potency was inconclusive [inhibitor, single point]. For `Cc1ccc(/C=C/C(=O)N2CCN(c3cccc(C(F)(F)F)c3)CC2)cc1`, the Potency was “inactive”. `CCOc1ccc2c(c1)/C(=C(\C(Cl)=C(Cl)Cl)[N+](=O)[O-])N2` was tested, and the Potency was inconclusive [inhibitor, partial curve]. `CCOC(=O)CSc1ccccn1` was tested, and the Potency was “inactive”. `O=C(CSc1nc2ccccc2[nH]1)Nc1nc(-c2cccc(Br)c2)cs1` was tested, and the Potency was “inactive”. `O=C(O)CN1CCN(Cc2ccccc2)C1=O` was tested, and the Potency was “inactive”. For `CC(=O)NCc1ccc(C(=O)CCl)cc1`, the Potency was active: 0.355 µM. With `COc1ccccc1NC(=O)c1c(N=Cc2ccccc2O)cnn1C` the Potency was inconclusive [inhibitor, single point]. With `Nc1nn(-c2cccc(F)n2)cc1-c1ccccc1` the Potency was “inactive”. For `O=C(COc1ccc2ccccc2c1)Nc1ccc2c3c(cccc13)CC2`, the Potency was “inactive”. With `CC(Sc1ccccn1)C(=O)Nc1ccccc1` (stereo unspecified) the Potency was “inactive”. In the case of `Brc1ccc(-c2nnc(-c3ccccc3)o2)o1`, the Potency is reported as inconclusive [inhibitor, single point]. `CCOC(=O)Cc1c(C)nc2cc(-c3ccc(C(C)(C)C)cc3)[nH]n2c1=O` was tested, and the Potency was inconclusive [inhibitor, single point]. In the case of `C=CCN1N=C(/C=C/c2ccc(C)cc2)CCC1=O`, the Potency is reported as inconclusive [inhibitor, partial curve]. With `COc1ccc(-n2c(=O)[nH]cc(C(=O)N3CCc4ccccc43)c2=O)cc1` the Potency was “inactive”. `Cc1nn(Cc2ccc(F)cc2)c(C)c1NC(=O)c1cccnc1Cl` was tested, and the Potency was “inactive”. With `CC(=O)c1sc(NC(=O)c2ccccc2C)nc1C` the Potency was inconclusive [inhibitor, single point]. In the case of `Cc1cc(C)c2sc(NNC(=O)C3COc4ccccc4O3)nc2c1` (stereo unspecified), the Potency is reported as “inactive”. With `COC(c1ccccc1)c1nnc(CCC(=O)N2CCCCCCC2)o1` (stereo unspecified) the Potency was inconclusive [inhibitor, single point]. In the case of `O=C(c1cc2ccccc2oc1=O)N(Cc1ccc2c(c1)OCO2)Cc1ccco1`, the Potency is reported as inconclusive [inhibitor, partial curve]. `CSc1nnc(-c2cc3c(-c4ccccc4)nn(C)c3s2)n1C` was tested, and the Potency was inconclusive [inhibitor, partial curve]. In the case of `Cc1n[nH]c(C)c1CCc1nc2c3ccccc3nc(SCC(N)=O)n2n1`, the Potency is reported as inconclusive [inhibitor, single point]. For `CCN(CCn1cccn1)Cc1c(C(=O)N2CCCCCCC2)nc2ccc(Cl)cn12`, the Potency was “inactive”. In the case of `CCOc1ccc2nc(SCC(=O)N(C)C)[nH]c2c1`, the Potency is reported as inconclusive [inhibitor, single point]. `O=C(CSc1nc2ccccc2c(=O)[nH]1)N1CCCCCC1` was tested, and the Potency was inconclusive [inhibitor, single point]. In the case of `COc1ccc(OC)c(C(=O)COC(=O)c2cc(C)oc2C)c1`, the Potency is reported as inconclusive [inhibitor, partial curve]. In the case of `O=C(NC1CCCC1)c1n[nH]c2ccccc12`, the Potency is reported as “inactive”. With `O=C(CC1Nc2ccccc2NC1=O)NCCc1ccccc1` (stereo unspecified) the Potency was inconclusive [inhibitor, single point]. For `CCC(=O)N1CCN(c2ccc(NC(=S)NC(=O)c3cccc([N+](=O)[O-])c3)cc2)CC1`, the Potency was inconclusive [inhibitor, single point]. With `CC(=O)C1=C(O)C(=O)N(Cc2ccco2)C1c1ccccc1` (stereo unspecified) the Potency was “inactive”. In the case of `Cn1c(=O)c2nc(-c3ccccc3)oc2c2ccccc21`, the Potency is reported as inconclusive [inhibitor, partial curve]. In the case of `Clc1cccc(Cl)c1Cn1cnc2c(N3CCCCCC3)ncnc21`, the Potency is reported as inconclusive [inhibitor, single point]. With `COc1ccc(NC(=O)CCc2nc3ccccc3s2)c(OC)c1` the Potency was inconclusive [inhibitor, single point]. In the case of `COc1ccc(C(OC(=O)c2ccco2)C(=O)NCC2CCCO2)cc1` (stereo unspecified), the Potency is reported as inconclusive [inhibitor, single point]. In the case of `COc1ccc(N2CCN(C(=O)/C=C/c3ccco3)CC2)cc1`, the Potency is reported as active: 22.4 µM. With `O=C(CC(Cc1ccccc1)c1ccco1)NCc1ccco1` (stereo unspecified) the Potency was “inactive”. `Nc1nc(SCC(=O)Nc2ccc(Br)cc2F)n[nH]1` was tested, and the Potency was “inactive”. `O=C(Cn1cc2c(n1)CCCC2)Nc1ccccc1Br` was tested, and the Potency was “inactive”. `Cc1ccc2[nH]c(=O)c(CN(Cc3ccccc3Cl)C(=O)N3CCOCC3)cc2c1` was tested, and the Potency was inconclusive [inhibitor, single point]. With `Cc1cc(C)nc(N(C#N)Cc2ccccc2)n1` the Potency was active: 14.1 µM. For `Cc1nc2sc3c(c2c(=O)o1)CCC3`, the Potency was active: 25.1 µM. In the case of `COc1ccc(C(=O)COC(=O)CCCn2c(=O)oc3ccccc32)cc1`, the Potency is reported as inconclusive [inhibitor, single point]. In the case of `Cc1ccc2nc3c(cc(C(=O)NCc4cccnc4)c(=N)n3C(C)C)c(=O)n2c1`, the Potency is reported as inconclusive [inhibitor, partial curve]. With `COc1ccccc1-c1nnc(NC(=O)C(C)C)s1` the Potency was inconclusive [inhibitor, single point]. `CCN(CC)c1nc(-c2ccccc2)cc(C(F)(F)F)c1C#N` was tested, and the Potency was inconclusive [inhibitor, single point]. In the case of `Cc1cccc(CSCc2nnc(N)s2)c1`, the Potency is reported as inconclusive [inhibitor, single point]. For `COc1ccc(Nc2oc(COc3ccc(OC)cc3)nc2C#N)cc1`, the Potency was “inactive”. With `COc1cc(OC)c(C2C3=C(CCCC3=O)Nc3nc4ccccc4n32)cc1OC` (stereo unspecified) the Potency was inconclusive [inhibitor, single point]. `COc1ccc(CCNC(=O)CCCN2C(=O)c3ccccc3C2=O)cc1` was tested, and the Potency was active: 14.1 µM. `CC(C)(C)c1csc(N(CCC#N)CCC#N)n1` was tested, and the Potency was inconclusive [inhibitor, single point]. With `COC(=O)c1cc(Cl)c(NC(=O)c2ccc(C(C)(C)C)cc2)cc1OC` the Potency was inconclusive [inhibitor, single point].

Reference: PubChem BioAssay AID1030 (National Center for Advancing Translational Sciences (NCATS), 2008)
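For activity, negative = inhibition in this document: plate controls were no enzyme wells and a reference inhibitor.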
Potency is read from the fitted curve at half-maximal effect; tags tell the direction and shape of the fitted curve.
